# According to the supplement of paper PMC11876631:
# ± gives the standard deviation of the averaged measurements. Laboratory Escherichia coli strains with one amino-acid change in an essential protein, pooled on minimal glucose agar with carbenicillin or gentamicin at twice the control MIC (plus kanamycin and chloramphenicol for the plasmids), 48 h. Fold change of barcode share against drug-free plates; higher = less susceptible. Active = above 20 in both replicates (the paper's putatively resistant). '<' = one read or none on drug, '>' = one read or none on a drug-free plate. Shares are relative, so most strains fall below 1 when a few take over. Listed are strains with at least 15 reads on both drug-free plates, and hits; most hits rest on fewer reference reads. Replicate rank correlation about 0.5. Edits are read from barcodes.
# B1: argA V62A (protein)
# chain: MVKERKTELVEGFRHSVPYINTHRGKTFVIMLGGEAIEHENFSSIVNDIGLLHSLGIRLVVAYGARPQIDANLAAHHHEPLYHKNIRVTDAKTLELVKQAAGTLQLDITARLSMSLNNTPLQGAHINVVSGNFIIAQPLGVDDGVDYCHSGRIRRIDEDAIHRQLDSGAIVLMGPVAVSVTGESFNLTSEEIATQLAIKLKAEKMIGFCSSQGVTNDDGDIVSELFPNEAQARVEAQEEKGDYNSGTVRFLRGAVKACRSGVRRCHLISYQEDGALLQELFSRDGIGTQIVMESAEQIRRATINDIGGILELIRPLEQQGILVRRSREQLEMEIDKFTIIQRDNTTIACAALYPFPEEKIGEMACVAVHPDYRSSSRGEVLLERIAAQAKQSGLSKLFVLTTRSIHWFQERGFTPVDIDLLPESKKQLYNYQRKSKVLMADLG
# B2: eno I171A (protein)
# chain: MSKIVKIIGREIIDSRGNPTVEAEVHLEGGFVGMAAAPSGASTGSREALELRDGDKSRFLGKGVTKAVAAVNGPIAQALIGKDAKDQAGIDKIMIDLDGTENKSKFGANAILAVSLANAKAAAAAKGMPLYEHIAELNGTPGKYSMPVPMMNIINGGEHADNNVDIQEFMAQPVGAKTVKEAIRMGSEVFHHLAKVLKAKGMNTAVGDEGGYAPNLGSNAEALAVIAEAVKAAGYELGKDITLAMDCAASEFYKDGKYVLAGEGNKAFTSEEFTHFLEELTKQYPIVSIEDGLDESDWDGFAYQTKVLGDKIQLVGDDLFVTNTKILKEGIEKGIANSILIKFNQIGSLTETLAAIKMAKDAGYTAVISHRSGETEDATIADLAVGTAAGQIKTGSMSRSDRVAKYNQLIRIEEALGEKAPYNGRKEIKGQA
# B3: eno I171Q (protein)
# chain: MSKIVKIIGREIIDSRGNPTVEAEVHLEGGFVGMAAAPSGASTGSREALELRDGDKSRFLGKGVTKAVAAVNGPIAQALIGKDAKDQAGIDKIMIDLDGTENKSKFGANAILAVSLANAKAAAAAKGMPLYEHIAELNGTPGKYSMPVPMMNIINGGEHADNNVDIQEFMQQPVGAKTVKEAIRMGSEVFHHLAKVLKAKGMNTAVGDEGGYAPNLGSNAEALAVIAEAVKAAGYELGKDITLAMDCAASEFYKDGKYVLAGEGNKAFTSEEFTHFLEELTKQYPIVSIEDGLDESDWDGFAYQTKVLGDKIQLVGDDLFVTNTKILKEGIEKGIANSILIKFNQIGSLTETLAAIKMAKDAGYTAVISHRSGETEDATIADLAVGTAAGQIKTGSMSRSDRVAKYNQLIRIEEALGEKAPYNGRKEIKGQA
# B4: eno L193A (protein)
# chain: MSKIVKIIGREIIDSRGNPTVEAEVHLEGGFVGMAAAPSGASTGSREALELRDGDKSRFLGKGVTKAVAAVNGPIAQALIGKDAKDQAGIDKIMIDLDGTENKSKFGANAILAVSLANAKAAAAAKGMPLYEHIAELNGTPGKYSMPVPMMNIINGGEHADNNVDIQEFMIQPVGAKTVKEAIRMGSEVFHHAAKVLKAKGMNTAVGDEGGYAPNLGSNAEALAVIAEAVKAAGYELGKDITLAMDCAASEFYKDGKYVLAGEGNKAFTSEEFTHFLEELTKQYPIVSIEDGLDESDWDGFAYQTKVLGDKIQLVGDDLFVTNTKILKEGIEKGIANSILIKFNQIGSLTETLAAIKMAKDAGYTAVISHRSGETEDATIADLAVGTAAGQIKTGSMSRSDRVAKYNQLIRIEEALGEKAPYNGRKEIKGQA
# B5: eno L277A (protein)
# chain: MSKIVKIIGREIIDSRGNPTVEAEVHLEGGFVGMAAAPSGASTGSREALELRDGDKSRFLGKGVTKAVAAVNGPIAQALIGKDAKDQAGIDKIMIDLDGTENKSKFGANAILAVSLANAKAAAAAKGMPLYEHIAELNGTPGKYSMPVPMMNIINGGEHADNNVDIQEFMIQPVGAKTVKEAIRMGSEVFHHLAKVLKAKGMNTAVGDEGGYAPNLGSNAEALAVIAEAVKAAGYELGKDITLAMDCAASEFYKDGKYVLAGEGNKAFTSEEFTHFAEELTKQYPIVSIEDGLDESDWDGFAYQTKVLGDKIQLVGDDLFVTNTKILKEGIEKGIANSILIKFNQIGSLTETLAAIKMAKDAGYTAVISHRSGETEDATIADLAVGTAAGQIKTGSMSRSDRVAKYNQLIRIEEALGEKAPYNGRKEIKGQA
# B6: eno L277W (protein)
# chain: MSKIVKIIGREIIDSRGNPTVEAEVHLEGGFVGMAAAPSGASTGSREALELRDGDKSRFLGKGVTKAVAAVNGPIAQALIGKDAKDQAGIDKIMIDLDGTENKSKFGANAILAVSLANAKAAAAAKGMPLYEHIAELNGTPGKYSMPVPMMNIINGGEHADNNVDIQEFMIQPVGAKTVKEAIRMGSEVFHHLAKVLKAKGMNTAVGDEGGYAPNLGSNAEALAVIAEAVKAAGYELGKDITLAMDCAASEFYKDGKYVLAGEGNKAFTSEEFTHFWEELTKQYPIVSIEDGLDESDWDGFAYQTKVLGDKIQLVGDDLFVTNTKILKEGIEKGIANSILIKFNQIGSLTETLAAIKMAKDAGYTAVISHRSGETEDATIADLAVGTAAGQIKTGSMSRSDRVAKYNQLIRIEEALGEKAPYNGRKEIKGQA
# Biological target: Escherichia coli (laboratory strain)
# Test: barcode share on antibiotic plates over drug-free plates; higher = less susceptible
# Details: antibiotic: carbenicillin; 2× MIC (3.1 µg/mL)
# Description: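 A pool of E. coli strains, each edited to carry one amino-acid change in an essential protein, was grown for 48 h on minimal glucose agar with or without antibiotic; strain barcodes were sequenced; mean of two replicates.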
row,Protein,fold change of barcode share
1,B1,0.603 ± 0.36
2,B2,0.327 ± 0.017
3,B3,0.51 ± 0.3
4,B4,0.866 ± 0.41
5,B5,0.166 ± 0.077
6,B6,0.327 ± 0.0097

# Same assay, conditions: antibiotic: gentamicin; 2× MIC (MIC 0.45 µg/mL)
row,Protein,fold change of barcode share
1,B1,0.0151 ± 0.0037
2,B2,< 0.00506
3,B3,0.351 ± 0.47
4,B4,0.827 ± 1.1
5,B5,0.0148 ± 0.011
6,B6,< 0.0116
